PubChem BioAssay AID624296 (National Center for Advancing Translational Sciences (NCATS), 2012)
Several values for one entry are separate records, joined by “and”; a condition that tells them apart may be missing. Equal entries are not always repeated. The campaign covered roughly 350,000 compounds. About 9,900 (2.8%) were called active. This list was built around the results that the source calls inconclusive (neither active nor inactive); the mix of calls is not that of the screen. Calls come from the whole dose curve; as a rule, active = well fitted activation curve with a large enough effect; inconclusive = small, poorly fitted or top-dose-only effect; inactive = no such curve, though single readings can be large or run the other way. A potency beside an inconclusive call is a rough fit, not a confirmed value.

Test: A quantitative high throughput screen for small molecules that induce DNA re-replication in MCF 10a normal breast cells. For activity, positive = re-replication: % of control where 0% means no effect. Note: nearly all actives have a fitted effect of over 50% in size.
Conditions: MCF 10A DNA re-replication, Hoechst nuclear intensity, 48 h; activity, positive = re-replication: at 46.1 µM (top of the series)
Potency is the fitted concentration of half-maximal effect; tags give direction and shape of the fitted curve.

Compound | Potency | activity, positive = re-replication
Cc1ccc2nc(N3CCN(CCO)CC3)nc(-c3ccccc3)c2c1 | active: 3.66 µM | 
O=C(NCc1ccco1)c1cc(-c2cccs2)on1 |  | inactive: -19.1%
CCOC(=O)N1CCC(NC(=O)c2cc(S(=O)(=O)NCCc3ccccc3)ccc2F)CC1 | inactive and inconclusive: 29.1 µM [activator, single point] | 
Cc1ccc(S(=O)(=O)c2c(N)n(Cc3ccco3)c3nc4ccccc4nc23)cc1 | inconclusive: 20.6 µM [activator, partial curve, poor fit] | 
CC(Sc1nnc2ccccn12)C(=O)Nc1ccc2c(c1)OCCO2 (centres undefined) |  | inactive: 0.55%
Cc1ccc2sc(N(CCCN(C)C)C(=O)c3ccc(S(=O)(=O)N4CCCCCC4)cc3)nc2c1C | inconclusive: 14.1 µM [activator, single point] | 
COC(=O)c1nnn(-c2nonc2N)c1CN1CCc2ccccc21 |  | inactive: 27.6%
COCC1CCCCN1C(=O)c1ccc(OC)c(OC2CCN(C(C)C)CC2)c1 (centres undefined) | inconclusive: 29.1 µM [activator, single point] | 
Cc1nc(SCC(=O)NC(C)c2ccccc2)c2oc3ccccc3c2n1 (centres undefined) | inconclusive: 2.91 µM [activator, full curve, poor fit] | 
CCCCN(C(=O)NC(=O)Nc1ccccc1OC)S(C)(=O)=O | inconclusive: 29.1 µM [activator, single point] | 
CCOc1cc(NC(=S)NCCCN2CCOCC2)c(OCC)cc1NC(=O)c1ccccc1C | inconclusive: 6.51 µM [activator, full curve] | 
CC(C)C(CCNC(=O)CC(Cc1ccccc1)c1ccco1)c1ccco1 (centres undefined) | inconclusive: 29.1 µM [activator, single point] | 
CSc1nnc2c3cc(C)ccc3n(Cc3ccccc3)c2n1 | inconclusive: 18.4 µM [activator, single point] | 
Cc1cccc(N(C(=O)c2snc(C(N)=O)c2N)C(C(=O)NCc2ccccc2)c2ccncc2)c1 (centres undefined) | inconclusive: 25.9 µM [activator, single point] | 
Cc1cc(-n2c(C)cc(C(=O)COc3cc(F)ccc3[N+](=O)[O-])c2C)no1 | inconclusive: 23.1 µM [activator, single point] | 
O=C(NC1CCCCCC1)c1ccc([N+](=O)[O-])s1 | inconclusive: 8.2 µM [activator, single point] | 
Cc1[nH]c2ccccc2c1C(=O)CSc1nc2ncc(Cl)cc2[nH]1 | inconclusive: 25.9 µM [activator, partial curve, poor fit] | 
CC(NC(=O)COC(=O)c1ccc2ccccc2n1)C1CC2CCC1C2 (centres undefined) | inconclusive: 25.9 µM [activator, partial curve, poor fit] | 
CCOc1ccc2c(c1)C(C)=CC(C)(C)N2C(=O)Nc1ccccc1 | inconclusive: 7.31 µM [activator, partial curve, poor fit] | 
CCOc1cc(/C=N/NC(=O)CNc2cccc(C)c2)ccc1OC(=O)c1ccccc1 |  | inactive: 1.02%
Cn1ncc2c(=O)n(/N=C/c3ccccc3)cnc21 |  | inactive: 11.4%
COCC(C)OC(=O)C(C#N)c1nc2ccccc2nc1N1CCN(Cc2ccccc2)CC1 (centres undefined) |  | inactive: 1.02%

Compound | Potency | activity, positive = re-replication
Cc1ccc(S(=O)(=O)N2CCOCC2)cc1NC(=O)CN1C(=O)NC(C)(c2ccc(Cl)cc2Cl)C1=O (centres undefined) | inconclusive: 1.03 µM [activator, partial curve, poor fit] | 
Cn1nnnc1Sc1ncnc2scc(-c3ccc(Br)cc3)c12 | inconclusive: 2.06 µM [activator, full curve, poor fit] | 
Cc1cc[n+](-c2[nH]c(=O)sc2/C=N/N=C(\[O-])c2ccncc2)cc1 |  | inactive: -44.6%
O=C(COc1ccc([N+](=O)[O-])cc1)N(Cc1cccs1)C1CCS(=O)(=O)C1 (centres undefined) |  | inactive: 10.9%
Cc1ccc(S(=O)(=O)c2c(N)n(/N=C/c3ccco3)c3nc4ccccc4nc23)cc1 | inconclusive: 6.51 µM [activator, partial curve] | 
COc1ccc(C(=O)NCCN2C(=O)S/C(=C\c3cccnc3)C2=O)c(OC)c1OC |  | inactive: 22.7%
CC(C)(C)c1ccc(SCCc2cccnc2)cc1 | inconclusive: 16.4 µM [activator, partial curve, poor fit] | 
CCN(C(=O)c1cc2c(=O)n3ccccc3nc2n1CCCOC)C1CCCCC1 | inconclusive: 29.1 µM [activator, single point] | 
Cc1[nH]n(C(N)=S)c(=O)c1N=Nc1ccc(S(=O)(=O)N2CCCC2)cc1 |  | inactive: 9.36%
COc1ccc(NC(=O)CSc2c3c(nc4ccccc24)CCCC3)c(OC)c1 | active: 20.6 µM | 
CC1CC(C)CN(C(=O)CCC(=O)Nc2nnc(C3CCCCC3)s2)C1 (centres undefined) | inconclusive: 2.91 µM [activator, partial curve, poor fit] | 
O=C1OC(=O)c2cc([N+](=O)[O-])ccc21 |  | inactive: -17%
Cc1ccccc1-n1c(C)n[nH]c1=S | active: 9.2 µM | 
CCOC(=O)C1CN(S(=O)(=O)c2ccc(OC)cc2)c2cc(Cl)ccc2O1 (centres undefined) | inconclusive: 29.1 µM [activator, single point] | 
Oc1ccccc1CN1CCCC(N2CCN(c3cccc(C(F)(F)F)c3)CC2)C1 (centres undefined) | inconclusive: 23.1 µM [activator, single point] | 
CC(=O)Nc1ccc(S(=O)(=O)Nc2cccc(-c3nc4cc(C)ccc4o3)c2)cc1 | inconclusive: 29.1 µM [activator, partial curve, poor fit] | 
CC1CCCC(NS(=O)(=O)c2cc(Br)cnc2N)C1C (centres undefined) | inconclusive: 23.1 µM [activator, partial curve, poor fit] | 
Cc1ccc(/C=N/NC(=O)Cn2nnc(N)n2)cc1 |  | inactive: 4.55%
Cc1cc(S(=O)(=O)N2CCOCC2)ccc1OCC(=O)N1CCC(C(N)=O)CC1 |  | inactive: -0.0544%
CCCOc1cccc(-c2cc(C(=O)NNC(=S)NCC)c3ccccc3n2)c1 | inconclusive: 29.1 µM [activator, single point] | 
CSc1nnc(-c2sc3cc(C(F)(F)F)cnc3c2-c2ccccc2)n1C | active: 4.61 µM | 
O=C(c1ccc(S(=O)(=O)NCc2ccco2)cc1)N1CCN(Cc2ccc3c(c2)OCO3)CC1 | inconclusive: 20.6 µM [activator, partial curve, poor fit] | 
